According to the supplement of paper PMC3334620:
The full ranking holds about 33,000 sequences; the median of “E-score (-0.5 to 0.5)” is about -0.013, and the highest 2% start at about 0.3. Some of the results follow.

target: T1, Msn1 (UniProt P22148); test: PBM E-score (8-mer binding enrichment) (E-score (-0.5 to 0.5)); higher = stronger / more preferred TF binding; most listed sequences are background and not binding sites; conditions: protein concentration: 200 nM; construct: GST-full length
T1 sequence: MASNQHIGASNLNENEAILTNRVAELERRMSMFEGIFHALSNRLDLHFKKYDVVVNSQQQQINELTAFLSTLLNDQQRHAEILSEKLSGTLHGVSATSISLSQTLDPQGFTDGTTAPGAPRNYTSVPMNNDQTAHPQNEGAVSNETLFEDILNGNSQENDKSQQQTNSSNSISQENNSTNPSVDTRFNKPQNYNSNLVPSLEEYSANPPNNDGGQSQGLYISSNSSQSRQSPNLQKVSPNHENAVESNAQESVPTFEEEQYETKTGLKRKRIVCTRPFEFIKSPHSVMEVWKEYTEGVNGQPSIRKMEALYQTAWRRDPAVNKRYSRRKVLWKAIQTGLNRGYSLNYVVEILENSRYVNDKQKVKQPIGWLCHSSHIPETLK
Summary of the method: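 Universal all-10-mer Agilent arrays, fresh or stripped once, were converted to double-stranded form by primer extension. GST-tagged yeast transcription factors from PURExpress in vitro transcription/translation, full-length or DNA-binding domain only, were applied at about 100-200 nM and detected with fluorescent anti-GST. After masliner normalisation, the Universal PBM Analysis Suite scored each ungapped eight-base word together with its reverse complement by E-score.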

Row | Sequence | PBM E-score
1 | CGGCGTTA | -0.0136
2 | ATCATAAT | 0.144
3 | CTCGGTTC | -0.122
4 | AAGTATTC | 0.004
5 | AGAGTGCT | -0.00552
6 | TACGTAGA | -0.0145
7 | ACAGCTCA | -0.0401
8 | CATTCCGC | 0.0152
9 | ATAGACAG | 0.202
10 | GGATATAC | 0.0454
11 | AAATCACC | 0.137
12 | AATCCGCT | -0.127
13 | GCACAGGA | 0.0138
14 | GTCAAAGA | 0.00566
15 | AACTTGAA | 0.101
16 | CTTTCTGA | 0.158
17 | CGGCGTGA | -0.154
18 | CCTACCAA | 0.133
19 | AGGGTGCA | -0.14
20 | CCCTGCGA | -0.1
21 | CGTCGGCA | -0.0575
22 | CGTCGCAA | 0.0166
23 | GAGAGTAA | 0.0458
24 | ATAGGTTG | -0.0907
25 | ACCACGCT | -0.091

Row | Sequence | PBM E-score
26 | TCACATAA | -0.0221
27 | ACAATGTA | 0.156
28 | GCCCGAGC | -0.146
29 | ATCGTTAC | -0.137
30 | ATAAAATC | 0.0924
31 | ACGAGGTG | -0.0331
32 | AGTCACTA | 0.0276
33 | ATATGCTG | -0.0228
34 | CAAGATGC | 0.208
35 | GCAATACA | 0.0699
36 | CCCCCATA | -0.4
37 | GCCCGTTA | -0.266
38 | CAAGTATC | -0.00272
39 | CATCAGGC | -0.0359
40 | GCTTCGTA | -0.0994
41 | ACATCGCA | 0.00155
42 | ACGGGCGC | -0.00574
43 | AAGCGCTA | -0.0275
44 | AATTAACT | -0.0545
45 | AAGCGTAT | -0.121
46 | CTCTACGC | -0.205
47 | CAGCCTAC | -0.125
48 | CCTCGCCG | -0.274
49 | CGCGGGCA | 0.175
50 | CAAACTGC | 0.166

Row | Sequence | PBM E-score
51 | AGCACGTA | -0.269
52 | GCCCCTAA | -0.0108
53 | CAGTGTGG | -0.254
54 | ACGCGTAC | 0.0517
55 | GATACGCC | -0.2
56 | AAAGTCAG | 0.0767
57 | CGCATTAG | -0.0867
58 | CTTACGAC | 0.0141
59 | CGTGCGAG | 0.00386
60 | AAAACAAG | -0.0297
61 | ACTGGACC | -0.137
62 | ATCATGAA | 0.121
63 | GAATGTGC | -0.148
64 | AAGACATG | 0.337
65 | CAGCGCAA | -0.0667
66 | GGCCCAAA | -0.0383
67 | CGGGCCAG | -0.264
68 | CTTGGGGC | -0.221
69 | CGTAAGCA | -0.216
70 | AGATAAAC | 0.158
71 | CAGTCCAG | -0.141
72 | AGCCTCTC | -0.235
73 | CAGCAGCG | -0.00664
74 | CCTGCGAC | -0.119
75 | CCACACCG | -0.119

Row | Sequence | PBM E-score
76 | AATGCAGT | -0.00858
77 | CCATGTGC | -0.0705
78 | AGCCAGGG | -0.297
79 | ACTGGATG | -0.0774
80 | GACCCCAA | -0.0989
81 | AGTTTAAA | 0.153
82 | ATGAGGGA | -0.2
83 | AGATGTTG | 0.0219
84 | ACAGTTAT | 0.052
85 | AGCTAGCA | -0.041
86 | AGGTCGGG | -0.0944
87 | GACGCTCA | 0.0746
88 | GCAGAAGC | -0.164
89 | ACAAAACC | 0.239
90 | GACAGATC | 0.143
91 | CATTTATC | 0.194
92 | AACTCCCT | -0.127
93 | GAGGGTAA | -0.114
94 | ACCTCGGG | 0.0624
95 | ACTCAATG | -0.0638
96 | GTTTTATA | 0.168
97 | ACGATTCT | 0.0879
98 | ACTCCGAG | 0.224
99 | GACGACCC | -0.102
100 | GCATCTAC | -0.0222

Row | Sequence | PBM E-score
101 | CTGCTCTC | -0.137
102 | CGCCGTAC | -0.0838
103 | GCGGGGCA | -0.147
104 | CAGCTTTC | -0.109
105 | AACAGAAG | -0.0418
106 | CCACAAGC | -0.0513
107 | CAACGCCG | -0.049
108 | ACTCAGTA | 0.0941
109 | GACTCAGC | -0.151
110 | CTACTCAA | 0.113
111 | AAGGCACC | -0.244
112 | CCGTGTAA | 0.00534
113 | ACGTGTCA | 0.254
114 | CTACGCGC | -0.0365
115 | GCGATTGA | -0.0391
116 | TAAGGCCA | -0.0192
117 | GCGGTGAC | 0.114
118 | TCTGCGAA | 0.0822
119 | ACAGTTCT | 0.13
120 | CGAGCAAG | -0.247
121 | ATGTGATC | 0.0746
122 | CGTATAAA | 0.287
123 | GCCTATCA | -0.00401
124 | ATATAGGA | 0.255
125 | GGTCGCAA | -0.11

Row | Sequence | PBM E-score
126 | GCGGGGGA | -0.42
127 | ATCACTTG | 0.107
128 | CCATCACC | -0.214
129 | ACACTTCC | 0.0144
130 | GACCCAAC | -0.0455
131 | ACCGTGTC | 0.222
132 | CCAAGGCA | -0.0766
133 | GGGTCGAC | -0.0447
134 | CTCCGGCA | 0.142
135 | AATGTCGC | 0.398
136 | CTCCTTTC | -0.214
137 | CAGCGTAC | -0.125
138 | AAGCTTTA | 0.0694
139 | ACTGTAGA | 0.0261
140 | CAGGTCGC | -0.00167
141 | CGGGGTAC | -0.216
142 | ATTTCTCA | 0.211
143 | TCAAATAA | 0.234
144 | ATGGGTTC | -0.107
145 | AGGGTATA | 0.217
146 | CGATTTCA | 0.0548
147 | CAGGACTA | 0.165
148 | CAACTATG | 0.161
149 | CCCTTGAC | -0.185
150 | CTCGTTTA | 0.00364

Row | Sequence | PBM E-score
151 | CGTTTCCA | -0.0212
152 | AAGATCTT | 0.0571
153 | CTCTGCAG | -0.0886
154 | CGGCGTCA | -0.146
155 | CTTTTTAA | 0.0194
156 | ACAAGCGG | 0.253
157 | ATCATGAC | 0.17
158 | ATGAGAAC | 0.0058
159 | GATGTCAC | 0.26
160 | ACCGTAAT | 0.0252
161 | AATAGACC | -0.0955
162 | CGGAACTC | 0.00812
163 | CCAGCCGA | -0.0639
164 | ACTATCAA | 0.111
165 | AAATCCTG | 0.258
166 | CACCGTAC | -0.00037
167 | TCTAATCA | 0.0873
168 | CATGCTTA | -0.133
169 | AAGCGTCT | -0.0523
170 | CTACGTAG | 0.0272
171 | GGATTTTA | 0.106
172 | TATTATCA | 0.173
